Source: patent US11530237B2, “Compositions and methods for treating CNS disorders” (Sage Therapeutics, Inc., priority 2014, dated 2022)
For at least one compound, name, drawing or mass did not settle the structure.

These compounds were tested against [35S]-TBPS binding, rat brain cortical membranes (assay: Steroid inhibition of TBPS binding ([35S]-TBPS radioligand displacement)). Details: 3 nM [35S]-TBPS, 5 μM GABA.
Protocol: TBPS binding assays using rat brain cortical membranes in the presence of 5 μM GABA has been described (Gee et al, J. Pharmacol. Exp. Then 1987, 241, 346-353; Hawkinson et al, Mol. Pharmacol. 1994, 46, 977-985; Lewin, A. H et al., Mol. Pharmacol. 1989, 35, 189-194).
Briefly, cortices are rapidly removed following decapitation of carbon dioxide-anesthetized Sprague-Dawley rats (200-250 g). The cortices are homogenized in 10 volumes of […] using a glass/teflon homogenizer and centrifuged at 1500×g for 10 min at 4° C. The resultant supernatants are centrifuged at 10,000×g for 20 min at 4° C. to obtain the P2 pellets. The P2 pellets are resuspended in 200 mM NaCl/50 mM Na—K phosphate pH 7.4 buffer and centrifuged at 10,000×g for 10 min at 4° C. This washing procedure is repeated twice and the pellets are resuspended in 10 volumes of buffer. Aliquots (100 μL) of the membrane suspensions are incubated with 3 nM [^35S]-TBPS and 5 μL aliquots of test drug dissolved in dimethyl sulfoxide (DMSO) (final 0.5%) in the presence of 5 μM GABA. The incubation is brought to a final volume of 1.0 mL with buffer. […] Following a 90 min incubation at room temp, the assays are terminated by filtration through glass fiber filters (Schleicher and Schuell No. 32) using a cell harvester (Braudel) and rinsed three times with ice-cold buffer. Filter bound radioactivity is measured by liquid scintillation spectrometry. Non-linear curve fitting of the overall data for each drug averaged for each concentration is done using Prism (GraphPad).
Various compounds are or can be screened to determine their potential as modulators of [^35S]-TBPS binding in vitro. These assays are or can be performed in accordance with the above discussed procedures.

SMILES	IC50 [nM]
COC[C@@]1(O)CC[C@@]2(C)[C@@H](CC[C@@H]3[C@@H]2CC[C@]2(C)[C@@H](C(=O)Cn4cc(OC)cn4)CC[C@@H]32)C1 [Compound 158]	10 to 50
CCOc1cnn(CC(=O)[C@H]2CC[C@H]3[C@@H]4CC[C@H]5C[C@@](O)(COC)CC[C@]5(C)[C@H]4CC[C@]23C)c1 [Compound 159]	10 to 50
COC[C@@]1(O)CC[C@@]2(C)[C@@H](CC[C@@H]3[C@@H]2CC[C@]2(C)[C@@H](C(=O)Cn4cc(C(=O)O)cn4)CC[C@@H]32)C1 [Compound 160]	> 500
CNC(=O)c1cnn(CC(=O)[C@H]2CC[C@H]3[C@@H]4CC[C@H]5C[C@@](O)(COC)CC[C@]5(C)[C@H]4CC[C@]23C)c1 [Compound 161]	100 to 500
COC[C@@]1(O)CC[C@@]2(C)[C@@H](CC[C@@H]3[C@@H]2CC[C@]2(C)[C@@H](C(=O)Cn4cc(C(N)=O)cn4)CC[C@@H]32)C1 [Compound 163]	100 to 500
COC[C@@]1(O)CC[C@@]2(C)[C@@H](CC[C@@H]3[C@@H]2CC[C@]2(C)[C@@H](C(=O)Cn4ccnc4C#N)CC[C@@H]32)C1 [Compound 164]	50 to 100
COC[C@@]1(O)CC[C@@]2(C)[C@@H](CC[C@@H]3[C@@H]2CC[C@]2(C)[C@@H](C(=O)Cn4nc5ccc(Cl)cc5n4)CC[C@@H]32)C1 [Compound 165]	< 10
COc1cnn(CC(=O)[C@H]2CC[C@H]3[C@@H]4CC[C@@H]5C[C@](C)(O)CC[C@]5(C)[C@H]4CC[C@]23C)c1 [Compound 166]	10 to 50
C[C@@]1(O)CC[C@@]2(C)[C@H](CC[C@@H]3[C@@H]2CC[C@]2(C)[C@@H](C(=O)Cn4cc(C(N)=O)cn4)CC[C@@H]32)C1 [Compound 167]	10 to 50
CNC(=O)c1cnn(CC(=O)[C@H]2CC[C@H]3[C@@H]4CC[C@@H]5C[C@](C)(O)CC[C@]5(C)[C@H]4CC[C@]23C)c1 [Compound 168]	10 to 50
CN(C)C(=O)c1cnn(CC(=O)[C@H]2CC[C@H]3[C@@H]4CC[C@@H]5C[C@](C)(O)CC[C@]5(C)[C@H]4CC[C@]23C)c1 [Compound 169]	50 to 100
C[C@@]1(O)CC[C@@]2(C)[C@H](CC[C@@H]3[C@@H]2CC[C@]2(C)[C@@H](C(=O)Cn4cc(N)cn4)CC[C@@H]32)C1 [Compound 170]	10 to 50
CC(=O)Nc1cnn(CC(=O)[C@H]2CC[C@H]3[C@@H]4CC[C@@H]5C[C@](C)(O)CC[C@]5(C)[C@H]4CC[C@]23C)c1 [Compound 171]	50 to 100
Cc1cn(CC(=O)[C@H]2CC[C@H]3[C@@H]4CC[C@@H]5C[C@](C)(O)CC[C@]5(C)[C@H]4CC[C@]23C)cn1 [Compound 172]	10 to 50
CC(C)Oc1cnn(CC(=O)[C@H]2CC[C@H]3[C@@H]4CC[C@@H]5C[C@](C)(O)CC[C@]5(C)[C@H]4CC[C@]23C)c1 [Compound 173]	10 to 50
Cc1nccn1CC(=O)[C@H]1CC[C@H]2[C@@H]3CC[C@@H]4C[C@](C)(O)CC[C@]4(C)[C@H]3CC[C@]12C [Compound 174]	100 to 500
C[C@@]1(O)CC[C@@]2(C)[C@@H](CC[C@@H]3[C@@H]2CC[C@]2(C)[C@@H](C(=O)Cn4cc(CO)cn4)CC[C@@H]32)C1 [Compound 176]	100 to 500
C[C@@]1(O)CC[C@@]2(C)[C@@H](CC[C@@H]3[C@@H]2CC[C@]2(C)[C@@H](C(=O)Cn4cc(C(N)=O)cn4)CC[C@@H]32)C1 [Compound 177]	100 to 500
COC[C@@]1(O)CC[C@@]2(C)[C@@H](CC[C@@H]3[C@@H]2CC[C@]2(C)[C@@H](C(=O)Cn4cnc(C#N)c4)CC[C@@H]32)C1 [Compound 178]	50 to 100
COC[C@@]1(O)CC[C@@]2(C)[C@@H](CC[C@@H]3[C@@H]2CC[C@]2(C)[C@@H](C(=O)Cn4cc(OC(C)C)cn4)CC[C@@H]32)C1 [Compound 179]	100 to 500
COC[C@@]1(O)CC[C@@]2(C)[C@@H](CC[C@@H]3[C@@H]2CC[C@]2(C)[C@@H](C(=O)Cn4cc(C)nn4)CC[C@@H]32)C1 [Compound 183]	50 to 100
COC[C@@]1(O)CC[C@@]2(C)[C@@H](CC[C@@H]3[C@@H]2CC[C@]2(C)[C@@H](C(=O)Cn4nncc4C)CC[C@@H]32)C1 [Compound 184]	100 to 500
